Data as given in the RNAGym collection of RNA variant scans (doi:10.7554/elife.90254).
The source gives no read counts; variants with many changes may rest on few reads.

B1: LINE1-mini (parent)
chain: GGCAGAGCUCAACACAGCGUGGCAAAGUGGCUGUGGCUAGACUGCC

Variants of: B1
Assay: self-cleavage, relative activity (ratio to wild type); higher = more cleavage; in vitro, sequencing; the parent is a self-cleaving ribozyme

| Variant | self-cleavage |
| --- | --- |
| A4C G40U U43C | 0.06 |
| A4C U28A A39U | 0.04 |
| A4C G19A U32C | 0.1 |
| A4C U28A G30U G35U G40A | 0.04 |
| A4G C10U C23A C31G | 0.08 |
| A4G A14G G21U C23U U43A | 0.06 |
| A4G A14G G27A | 0.26 |
| A4G A6U G17U G33U U38A C46A | 0.18 |
| A4G C10A A11G A41U | 0.09 |
| A4C G30A C37G | 0.3 |
| A4C G30U U43A | 0.07 |
| A4C C42U C45A C46A | 0.01 |
| A4G A6G U20G G36U | 0.01 |
| A4C G33C G44C C46U | 0.03 |
| A4G A12G C13U G17A | 0.01 |
| A4C G30A U34A G36A | 0.02 |
| A4C G40A C42G | 0.02 |
| A4C G5A C10A A16G | 0.02 |
| A4C U34C C45A | 0.01 |
| A4G C10A C15G G35U C46A | 0.02 |
| A4C U9C G33U A41G | 0.03 |
| A4C G19U G22U G35C C42G U43A | 0.01 |
| A4G C10A A11C C23U U28C U38G | 0.01 |
| A4G A24U G30A G36U | 0.05 |

| Variant | self-cleavage |
| --- | --- |
| A4G A11C C23A | 0.01 |
| A4C G17U G36C C37U A41C | 0 |
| A4C G7U U28A A41G | 0.15 |
| A4G A12C A24C C42U | 0.03 |
| A4G A12U G27C A41U G44C | 0.04 |
| A4C G5U C42U | 0.31 |
| A4G C8A G21U G35C | 0.25 |
| A4G C8G G21U | 0.24 |
| A4C U20A C46G | 0.04 |
| A4C G5C C13U A14U C18G | 0.07 |
| A4G A24C G33A | 0.04 |
| A4G A12U G36C | 0.06 |
| A4C C18U U28C | 0.03 |
| A4C G7U C18U C37A | 0.02 |
| A4G A6U C10G G35A | 0.03 |
| A4G A14C C42A | 0.34 |
| A4G C8U G17C U20A C46U | 0.05 |
| A4G C10G C18A U28G U34A | 0.01 |
| A4C U32C G33A C46A | 0.11 |
| A4G A26C G33A | 0.12 |
| A4C U9C A16U C31A | 0 |
| A4C G5U G7A A11G C15U C18G C42A | 0.06 |
| A4C G27A U43A | 0.08 |
| A4G C8U U9C | 0.12 |

| Variant | self-cleavage |
| --- | --- |
| A4C U28G C46G | 0.32 |
| A4C G27A G29C | 0.54 |
| A4C G5C A14U G22C | 0.01 |
| A4C C18U U34C | 0.77 |
| A4C U20A G30U G44U | 0.01 |
| A4C C23A G30U | 0.23 |
| A4C C31G A39G G40U | 0.16 |
| A4G A16G U28G A41G C45G | 0.02 |
| A4C G21A G22A A24G A26U G40A U43G | 0.02 |
| A4C G7U U38G | 0.03 |
| A4C C23A G33C | 0.05 |
| A4C G22U A24U G27U G29U | 0.07 |
| A4C G5C C23U G27A U28A U38C | 0.01 |
| A4C G19C U32A U34A C46G | 0.19 |
| A4G C8U G17A | 0.03 |
| A4G C8A C15U G17U | 0.09 |
| A4G A11G A41U C42A G44U | 0 |
| A4G A11C C18U A24U | 0.02 |
| A4C U20G C23U G44C | 0.06 |
| A4G A6U G44C | 0.15 |
| A4C G17C G27C G29U | 0.06 |
| A4G C10A G29A | 0.01 |
| A4C G22A A39C G40C | 0.02 |
| A4G C8U U9A G29U | 0.08 |

| Variant | self-cleavage |
| --- | --- |
| A4G A16U C31A | 0.03 |
| A4G A6C A14U A16U | 1.93 |
| A4G A12G C18A A26U C31A U34C | 0.08 |
| A4C U20G G30A | 0.07 |
| A4G A6G U9A C31A | 0.02 |
| A4C G35U C42A | 0.02 |
| A4G A14C G17A C23A U28A C37U U43A | 0 |
| A4C G17C U38C | 0.05 |
| A4C G29A A39U G44C | 0.03 |
| A4G A25C G44C | 0 |
| A4C G17A U32A G44A | 0.02 |
| A4C G21A C31U | 0.02 |
| A4G A16U C45G | 0.06 |
| A4G A6U U20G A25U C31U C46U | 0.06 |
| A4C G17A C31U | 0.03 |
| A4C U20A C42G | 0.08 |
| A4G C8A C23A G27A G30A C37G | 0.31 |
| A4G A12G G19U C31U U34C G36A U43A | 0.02 |
| A4G A11C U28G | 0.01 |
| A4G C8U U9G C13A C23G C46A | 0.11 |
| A4G A12C G19U G30U G33C U38A | 0.12 |
| A4G A6G G17A U38A | 0.04 |
| A4G A6U A14G A16G A25G U28G | 0.06 |
| A4C U9G G19A | 0.03 |

| Variant | self-cleavage |
| --- | --- |
| A4G C10U C23A G27U | 0.19 |
| A4G C8U G40C | 0.07 |
| A4C U9G U32C | 0.19 |
| A4C G5A G40A | 0.05 |
| A4C G5A G40U | 0.71 |
| A4G A6C A14C A25U U34A C42U | 0.14 |
| A4C U28G C31A G35C C37A | 0.03 |
| A4G A11U C15U U43G | 0 |
| A4C C18U U32C U38G A41G | 0.03 |
| A4C G22C U43G | 0.18 |
| A4G C8U A16G | 0.02 |
| A4G C8A U9C A14G A24C | 0.21 |
| A4G A11G C37G | 0 |
| A4C U9A C13A G27U | 0.71 |
| A4C G5A G33U | 0.25 |
| A4C G22A A39G | 0.05 |
| A4G A11C C13U C23G A26C | 0.04 |
| A4C G7A A12C | 0.21 |
| A4G A11C A14U G22C | 0.02 |
| A4G A11C G33C C42A | 0.02 |
| A4G A6C C13G C18U A25G A26G U34G | 0.02 |
| A4C G27U C46A | 0.12 |
| A4G A11C U34C | 0.04 |
| A4G A6C U28A G29U U38A G44C | 0.07 |

| Variant | self-cleavage |
| --- | --- |
| A4G A14G A16C C42U | 0.49 |
| A4C G19U U20A G22C | 0.06 |
| A4G A11C G29C C42U | 0.01 |
| A4C G17U G21A C45U | 0.41 |
| A4C G5A C10G C13U G30A | 0.01 |
| A4C G17C A24C G29A U34G | 0.11 |
| A4C G7C A11C G33C U43A | 0 |
| A4G A6C G17A C31A C37U | 0.07 |
| A4C C23U G36U | 0.08 |
| A4G A12U A14G G19A U28G | 0.22 |
| A4G A12U G19U | 0.02 |
| A4G A12U G30A | 0.14 |
| A4C U9G C37U | 0.06 |
| A4C G17U C18A G33C | 0.03 |
| A4C G7C G21C | 0.06 |
| A4C G5U U9A A16U G36U | 0.03 |
| A4C G7C A41C U43A | 0.01 |
| A4C U43C C45A | 0.07 |
| A4C G44C C45G | 0.02 |
| A4G A26C G30A C42G | 0.01 |
| A4G A14C G19C C23G G35U A39G | 0.01 |
| A4C U9A C23G A39U U43C | 0.02 |
| A4G A6G U9C | 0.04 |
| A4C G7U U9G G22U G44U | 0.13 |

| Variant | self-cleavage |
| --- | --- |
| A4G A6U C37A | 0.05 |
| A4C U34C G36A | 0.05 |
| A4C C37U A41C C42U | 0.06 |
| A4G C10A G21C C45U | 0.03 |
| A4C C31G A41C | 0.04 |
| A4C G5C A6G C10U C13G A16G G19A | 0.01 |
| A4C G7A C13G C45A | 0.31 |
| A4G C10G U20G C37A | 0 |
| A4C G22A C23A G27U | 0.04 |
| A4C G35A C37A C45U | 0.05 |
| A4C G19C G40C | 0.02 |
| A4C G5A C15U | 0.05 |
| A4C U32A G35A C46U | 0.07 |
| A4G C8G G40A | 0.05 |
| A4G C8U G44C | 0.07 |
| A4C C23A A25C C31U C46A | 0.03 |
| A4G A24G A25G A26C G33U C46A | 0 |
| A4G A6U A11U G27U U34G C45G | 0.02 |
| A4C G5U A39G G40A | 0.06 |
| A4C U9A C18U | 0.21 |
| A4C G33C U34G C45A | 0.01 |
| A4C U9C A24U C42U | 0.08 |
| A4G C10A A12G U28C G29C | 0 |
